Variants at the floor of the assay are shown more often than the library holds them.
B1: TPR 5TU (parent)
chain: GGAUCUUCUCGAUCUAACAAAAAAGACAAAUCUGCCACAAAGCUUGAGAGCAUCUUCGGAUGCAGAGGCGGCAGCCUUCGGUGGCGCGAUAGCGCCAACGUUCUCAACUAUGACACGCAAAACGCGUGCUCCGUUGAAUGGAGUUUAUCAUG

Variants of: B1
Test: polymerase ribozyme fitness, log enrichment relative to wild type (log ratio); higher = more active; in vitro selection for triplet polymerase activity
How it was run: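 Mutant libraries of each subunit of a heterodimeric triplet polymerase ribozyme were built by PCR and transcribed. Each library went through one round of in vitro selection in triplicate: annealing with biotinylated primer, partner subunit and triplets, frozen incubation at −7 °C, gel excision of extended constructs, streptavidin-bead capture and RT-PCR. Input and output libraries were Illumina-sequenced; only genotypes with ≥10 input reads and ≥1 read per output were kept. Fitness is log2(genotype enrichment/wild-type enrichment), using inverse-variance-weighted replicate averages.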

Row | Variant | polymerase ribozyme fitness (log ratio)
1 | GGAUCUUCUCGAUCUAACAAAAAAGACAAAUCUGCCACAAAGCUUGAGACCGUCUUCGGUUGCAGAGGCGGCAGCCUUCGGUGGCGCGAUAGCGCCAACGUACUCAACUAUGACACGCUAAACGCGUGCUCCGUUGAAUGGAGUUUAUCAUG [G50C A52G A60U U102A A119U] | ≤ -4.2
2 | GGAUCUUCUCGAUCUAACAAAAAAGACAAAUCUGCCACAAAGCUUGAGACCGUCUUCGGAUGCAGAGGCGGCAGCCUUCGGUGGCGCGAUAGCGUCAACGUUCUCAACUAUGACACGCAAAACGCGAGCUCCGUUGAAUGGAGUUUAUCAUG [G50C A52G C95U U127A] | ≤ -4.2
3 | GGAUCUUCUCGAUCUAACAAAAAAGACAAAUCUGCCACAAAGCUUGAGACCUUCUUCGGAUGCAGAGGCGGCAGCCUUCGAUGGCGCGAUAGCGCCAACGUUCUCAACUAUGACACGCAAAACGCGUGCUCCGUUGAAUGGAGUUUAUCAUG [G50C A52U G81A] | ≤ -4.2
4 | GGAUCUUCUCGAUCUAACAAAAAAGACAAAUCUGCCACAAAGCUUGAGACCAUCUUCGGGUGCAGAGGCGGCAGCCUUCGGUGGCGCGAUAGCGCCAACGUUCUCAACUAUGACACGCAAAACGCGUGCUCCGUUGAAUGGAGUUUAUCAUG [G50C A60G] | -2.31
5 | GGAUCUUCUCGAUCUAACAAAAAAGACAAAUCUGCCACAAAGCUUGAGACCAUCUUCGGAUGCCGAGGCGGCAUCCUUCGGUGGCGCGAUAGGGCCAACGUUCUCAACUAUGACACGCAAAACGCGUGCUCCGUUGAAUGGAGUUUAUCAUG [G50C A64C G74U C93G] | ≤ -4.2
6 | GGAUCUUCUCGAUCUAACAAAAAAGACAAAUCUGCCACAAAGCUUGAGACCAUCUUCGGAUGCUGAGGCGGCAGCCUUCGGUGGCGCGAUAGGGCCAACGUUCUCAACUAGGACAUGCAAAACGCGUGCUCCGUUGAAUGGAGUUUAUCAUG [G50C A64U C93G U111G C116U] | ≤ -4.2
7 | GGAUCUUCUCGAUCUAACAAAAAAGACAAAUCUGCCACAAAGCUUGAGACCAUCUUCGGAUGCAGGGGCGGCAGCCUUCGGUGGCGCGAUAGCGCUAACGUUCUCAACUAUGACACGCAAAACGCGUGCUCCGUUGAAUGGAGUUGAUCAUG [G50C A66G C96U U146G] | ≤ -4.2
8 | GGAUCUUCUCGAUCUAACAAAAAAGACAAAUCUGCCACAAAGCUUGAGACCAUCUUCGGAUGCAGAGGCGGCGGCAUUCGGUGGCGCGAUAGCGCCAACGUUCUCAACUAUGACACGCAAAACGCGUGCUCCGUUGAAUGGAAUUUAUCGUG [G50C A73G C76A G143A A150G] | ≤ -4.2
9 | GGAUCUUCUCGAUCUAACAAAAAAGACAAAUCUGCCACAAAGCUUGAGACCAUCUUCGGAUGCAGAGGCGGCAGCCUUCGGUGGCGCGGUAGCGCCAAUGUUCUCAACUAUGACACGCAAAGCGCGUGCUCCGUUGAAUGGAGUUUAUCAUG [G50C A89G C99U A122G] | ≤ -4.2
10 | GGAUCUUCUCGAUCUAACAAAAAAGACAAAUCUGCCACAAAGCUUGAGACCAUCUUCGGAUGCAGAGGCGGCAGCCUUCGGUGGCGCGGUAGCGCCAACGUUCUCAACUAUGACACGAAACACGCGUGCUCCGUUGAAUGGAGUUUAUCAUG [G50C A89G C118A A121C] | ≤ -4.2
11 | GGAUCUUCUCGAUCUAACAAAAAAGACAAAUCUGCCACAAAGCUUGAGACCAUCUUCGGAUGCAGAGGCGGCAGCCUUCGGUGGCGCGAUGGCGCCGACGUUCUCAACUGUGACACACAAAACGCGUGCUCCGUUGAAUGGAGUUUAUCAUG [G50C A91G A97G A110G G117A] | ≤ -4.2
12 | GGAUCUUCUCGAUCUAACAAAAAAGACAAAUCUGCCACAAAGCUUGAGACCAUCUUCGGAUGCAGAGGCGGCAGCCUUCGGUGGCGCGAUUGCGCCAACGUUCUCAACUAUGACACGCAAAACGCGUGCUCCGUUGAAUGGAGUUUAUCAUG [G50C A91U] | ≤ -4.2
13 | GGAUCUUCUCGAUCUAACAAAAAAGACAAAUCUGCCACAAAGCUUGAGACCAUCUUCGGAUGCAGAGGCGGCAGCCUUCGGUGGCGCGAUAGCGCCUACGCUCUGAACUAUGACACGCAAAACGAGUGCUCCGUUGAAUGUAGUUUAUCAUG [G50C A97U U101C C105G C125A G141U] | ≤ -4.2
14 | GGAUCUUCUCGAUCUAACAAAAAAGACAAAUCUGCCACAAAGCUUGAGACCAUCUUCGGAUGCAGAGGCGGCAGCCUUCGGUGGCGCGAUAGCGCCAGCGUUCUCAACUAUGACACGCAAAACGCGUGCUCCGUUGAAUGGAGUUUAUCAUG [G50C A98G] | -3.37
15 | GGAUCUUCUCGAUCUAACAAAAAAGACAAAUCUGCCACAAAGCUUGAGACCAUCUUCGGAUGCAGAGGCGGCAGCCUUCGGUGGCGCGAUAGCGCCAUCGAUCUCAACUAUGACACGCAAAACGCGUGCUCCGUUGAAUGGAGUUUAUCAUG [G50C A98U U101A] | ≤ -4.2
16 | GGAUCUUCUCGAUCUAACAAAAAAGACAAAUCUGCCACAAAGCUUGAGACCAUCUUCGGAUGCAGAGGCGGCAGCCUUCGGUGGCGCGAUAGCGCCAACGUUCUCAACUAUGCCACGCAAAACGCGUGCUCCGUUGAAAGGUGUUUAUCAUG [G50C A113C U139A A142U] | ≤ -4.2
17 | GGAUCUUCUCGAUCUAACAAAAAAGACAAAUCUGCCACAAAGCUUGAGACGAUCUUCGGAUGCAGAGGCGUCAGCCUUCGGUGGCGCGAUAACGCCAACGUUCUCAACUAUGACACGCAAAACGCGUCCUCCGUUGAAUGGAGUUUAUCAAG [G50C C51G G71U G92A G128C U151A] | ≤ -4.2
18 | GGAUCUUCUCGAUCUAACAAAAAAGACAAAUCUGCCACAAAGCUUGAGACGAUCUUCGGAUGCAGAGGCGGCAGCCUUCCGUGGCGCGAUAGCGCCAACGUUCUCAACUAUGACACGCAAAACACGUGCUCCGAUGAAUGGAGUAUAUCAUG [G50C C51G G80C G124A U134A U145A] | ≤ -4.2
19 | GGAUCUUCUCGAUCUAACAAAAAAGACAAAUCUGCCACAAAGCUUGAGACUAUCUUCGGAUGCAGAGGCGGCAGCCUUCGGUGGCGCGAUAGCGCCAACGAUCUCAACUAUGACACGCAAAACGCGUGCUCCGUUGAAUGGAGUUUAUCAUG [G50C C51U U101A] | ≤ -4.2
